Measurements from the supplement of paper PMC12217912.
The other results are listed elsewhere or left out. Sequences were assembled here from the parent chain. Values near 0.05 are background.

B1: TEV protease; numbered along this chain (parent)
chain: MGESLFKGPRDYNPISSSICHLTNESDGHTTSLYGIGFGPFIITNKHLFRRNNGTLVVQSLHGVFKVKDTTTLQQHLVDGRDMIIIRMPKDFPPFPQKLKFREPQREERICLVTTNFQTKSMSSMVSDTSCTFPSGDGIFWKHWIQTKDGQCGSPLVSTRDGFIVGIHSASNFTNTNNYFTSVPKNFMELLTNQEAQQWVSGWRLNADSVLWGGHKVFMVKPEEPFQPVKEATQL

Variants of: B1
Test: raw area under fraction-flipped curve 0-4 h after induction (AUC4h, not background-subtracted), DNA-recorder readout of cleavage of the substrate (dimensionless); higher = more cleavage of the substrate by the protease variant
Conditions: temperature: 34 °C; time window: 0-4 h after rhamnose induction
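Further: Bxb1 expression induced with 0.2% (w/v) L-rhamnose at OD600 near 0.5, cultures sampled hourly, flipped fraction per protease–substrate barcode pair counted by paired-end Illumina sequencing.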

Variant | area with substrate ENLYFQK | area with substrate ENLYFQM | area with substrate ENLYFQN | area with substrate ENLYFQS | area with substrate ENLYFQT | area with substrate ENLYFQR | area with substrate ENLYFQL | area with substrate ENLYFQP | area with substrate ENLYFQQ | area with substrate ENLYFQV
F6A | 0.064 | 0.0399 | 0.0885 | 0.0836 | 0.0532 | – | – | – | – | –
G138T | – | – | – | 0.0993 | 0.0638 | 0.0545 | – | – | – | –
G138Y | 0.0643 | – | – | 0.0975 | – | – | 0.0522 | 0.0718 | 0.0602 | 0.0521
G138A | – | – | – | 0.0919 | 0.0553 | – | 0.0585 | – | – | –
G138P | – | – | 0.0684 | 0.0888 | – | – | – | – | – | –
G138L | 0.012 | – | 0.0507 | 0.0977 | – | – | 0.052 | – | – | –
I145N | – | 0.118 | – | 0.0958 | 0.0653 | 0.0537 | – | 0.0755 | – | 0.0819
K90M | – | – | – | 0.119 | – | – | – | – | – | –
S182M | – | – | – | 0.0716 | – | – | – | – | – | –
R51S | 0.0593 | 0.0896 | – | 0.116 | – | – | – | – | – | –
R51H | – | – | – | 0.121 | – | – | 0.0365 | – | – | –
F65V | – | – | – | 0.0895 | – | 0.0609 | – | – | – | –
E223A | – | – | – | 0.0949 | – | – | – | – | – | –
E223D | – | – | 0.0881 | 0.107 | 0.078 | – | – | – | – | 0.0657
G214F | – | 0.0719 | 0.0484 | 0.0694 | 0.0632 | – | 0.066 | – | – | 0.0392
T181E | 0.0694 | – | 0.0498 | 0.0622 | 0.07 | 0.0612 | 0.0694 | 0.0648 | 0.0657 | –
T181C | – | – | – | 0.117 | – | – | – | – | – | –
T129H | – | – | – | 0.0917 | – | – | 0.0586 | – | – | –
F140S | – | – | – | 0.0612 | – | 0.0695 | – | – | – | 0.025
F92G | – | – | – | 0.0667 | – | – | – | – | – | –
F163P | – | 0.0534 | 0.0634 | 0.0555 | – | – | – | – | – | –

Variant | area with substrate ENLYFQK | area with substrate ENLYFQM | area with substrate ENLYFQN | area with substrate ENLYFQS | area with substrate ENLYFQT | area with substrate ENLYFQR | area with substrate ENLYFQL | area with substrate ENLYFQP | area with substrate ENLYFQQ | area with substrate ENLYFQV
F163D | 0.0594 | 0.0603 | – | 0.0932 | – | – | 0.0369 | – | – | –
F163S | – | – | – | 0.105 | – | – | – | – | – | –
G2A | – | 0.096 | – | 0.109 | – | 0.0625 | 0.055 | 0.0515 | – | –
M1I | – | – | – | 0.0684 | – | 0.0666 | – | – | – | –
D137H | 0.0651 | 0.0916 | 0.0744 | 0.0976 | – | 0.0658 | 0.0768 | – | – | –
Y179D | 0.0555 | – | 0.0493 | 0.0574 | 0.0676 | – | 0.0526 | – | 0.0583 | –
N178R | – | – | – | 0.108 | 0.0601 | 0.0692 | – | – | – | –
N178C | – | – | – | 0.0946 | – | – | – | – | – | –
N178M | – | 0.111 | 0.0908 | 0.154 | – | – | 0.065 | – | – | –
G35I | – | – | – | 0.0503 | – | – | – | – | – | –
G35A | – | – | – | 0.101 | – | – | 0.0702 | – | – | 0.065
L211D | – | – | – | 0.124 | – | – | – | – | – | –
L211T | 0.0823 | – | – | 0.119 | 0.0531 | – | – | – | – | –
L211I | 0.0543 | – | – | 0.0964 | 0.0667 | – | 0.0458 | – | – | –
N116T | – | – | 0.07 | 0.108 | – | – | – | 0.0561 | – | –
G162V | – | – | 0.0335 | 0.0714 | – | – | – | – | – | –
H29G | 0.0647 | – | – | 0.107 | – | 0.0689 | – | – | – | –
E189Y | – | – | – | 0.112 | – | 0.0296 | 0.0304 | 0.0684 | 0.117 | –
Q74I | – | 0.0684 | 0.0766 | 0.0736 | 0.0742 | 0.0611 | 0.0599 | 0.0506 | – | –
R102N | – | – | – | 0.0623 | – | – | – | – | – | –

Same assay, conditions: temperature: 34 °C; time window: 0-4 h after rhamnose induction

Variant | area with substrate ENLYFQW | area with substrate ENLYFQI | area with substrate ENLYFQH | area with substrate ENLYFQY
G138Y | 0.0541 | – | – | –
G138P | – | 0.0506 | – | –
G138L | 0.0709 | – | 0.0749 | –
I145N | – | 0.0711 | 0.0929 | –
K90M | 0.0563 | – | – | 0.0877
S182M | – | 0.0254 | – | –
R51S | 0.055 | 0.0509 | – | 0.0864
R51H | – | 0.0524 | – | –
T181E | – | 0.0518 | – | –
T181C | – | – | – | 0.0929
F92G | – | 0.0658 | – | –
G2A | – | 0.0515 | 0.126 | 0.103
Y179D | – | 0.0486 | – | 0.0617
N178C | 0.0629 | – | – | –
G35A | – | – | 0.0713 | –
L211T | – | – | 0.0768 | –
N116T | – | 0.0763 | – | –
G162V | – | 0.061 | – | 0.0632
H29G | – | 0.0735 | – | 0.111
E189Y | 0.0618 | – | – | 0.0553
Q74I | – | 0.0435 | – | –
